The other results are listed elsewhere or left out.

The experiment concerns the target T1, OsWOX13 (Oryza sativa, UniProt Q5QMM3 1-267).
T1 sequence: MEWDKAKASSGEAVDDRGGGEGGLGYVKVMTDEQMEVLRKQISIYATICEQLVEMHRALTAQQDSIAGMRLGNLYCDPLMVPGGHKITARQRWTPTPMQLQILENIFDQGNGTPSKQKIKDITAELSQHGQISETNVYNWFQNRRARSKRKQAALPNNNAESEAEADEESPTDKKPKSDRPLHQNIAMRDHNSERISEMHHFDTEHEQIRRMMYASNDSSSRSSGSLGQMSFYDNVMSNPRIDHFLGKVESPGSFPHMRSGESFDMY
The experiment in a line: protein-binding microarray (RPBM); PBS, 2% BSA, 51.3 ng/ul salmon testes DNA, 50 uM zinc acetate, 200 nM TF, 25 C, 1 h; high values mean tight binding. Conditions: protein: recombinant; tags: N-terminal polyhistidine and DsRed monomer fusion (pET32a); label: CyDye5-dUTP incorporated in the synthesized complementary strand; 3' TTTTT single-stranded linker to array surface; dsDNA, one strand shown. The procedure, abridged:
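For the binding signal, per-feature fluorescence intensity was read in arbitrary units on an Axon 4000B scanner. Before scanning, a 2% BSA-blocked custom Agilent array made double-stranded with Cy5-dUTP was washed after 1 h at 25 °C with 200 nM protein and 50 µM zinc acetate. The proteins were Ni–NTA-purified transcription factors with N-terminal polyhistidine and DsRed fusions, expressed in E. coli BL21-CodonPlus.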
With “TTATTATTATCAATTAACCCCATATCATTGGGATTGGGAGCGGAGTCACCTAGTGCAG”, the binding signal was 32600 fluorescence intensity (a.u.).
Under “AGTAATTGATTAATTTTGTGACAGAGGTGGTCACTATATGCGGAGTCACCTAGTGCAG” stands 61000 fluorescence intensity (a.u.); under “TCCTCTTTGCTTGATTTGCTTCCGCTGCTGCTGTTAGGTGCGGAGTCACCTAGTGCAG”, 3950 fluorescence intensity (a.u.); under “ACACCGATTGATCACTAGTGTGCTATGTAAGCTCCTACTCCGGAGTCACCTAGTGCAG”, 7130 fluorescence intensity (a.u.).
Regarding “CTGTGTGTAATTTATCTACTTTTATTAGATTAAGATATGCCGGAGTCACCTAGTGCAG”, the binding signal was 10100 fluorescence intensity (a.u.).
To “ATAAAATTGTGTGGTATGGTAAATTGGTAATCCTTATCCTCGGAGTCACCTAGTGCAG” belongs 4750 fluorescence intensity (a.u.).
To “AATTATCATCACAAATGACATGATTGATGCTACCTTTAGTCGGAGTCACCTAGTGCAG” belongs 18000 fluorescence intensity (a.u.); to “TATGATTATGACTCTGATATAGTGATATATCTCACCCAATCGGAGTCACCTAGTGCAG”, 39900 fluorescence intensity (a.u.); to “TCTCCCGCTGACTGACACCTCAAAACCGGCCGTCCCACGACGGAGTCACCTAGTGCAG”, 3920 fluorescence intensity (a.u.).
To “GTATTCTATTAATTCTATTAAACTCTAGGCCGGGATGTTACGGAGTCACCTAGTGCAG” belongs 4250 fluorescence intensity (a.u.); to “ATAATTGTTCTTGTATCTCACTCACTCACTCACTCAATTGCGGAGTCACCTAGTGCAG”, 4460 fluorescence intensity (a.u.).
Take “CTGATTAAGATCACTAATTGATCTGTCCACATTGCATCCTCGGAGTCACCTAGTGCAG”: the binding signal was 54800 fluorescence intensity (a.u.).
Under “ACCCAATTAAGTTAAGCGTTTGATCGATGTGCGGTGTCTGCGGAGTCACCTAGTGCAG” stands 11500 fluorescence intensity (a.u.); under “GATGCAAATCAAAAGGACAAGATTATCCATATTATAGGTACGGAGTCACCTAGTGCAG”, 3420 fluorescence intensity (a.u.).
For “TGGGTTGATTTTACCTATTTTAGTAGTTTAGATTGGTAGTCGGAGTCACCTAGTGCAG”, the binding signal is 7660 fluorescence intensity (a.u.).
With “GTTAATTATAGATATATACTGCATCATTAATACCTAATATCGGAGTCACCTAGTGCAG”, the binding signal is 28900 fluorescence intensity (a.u.).
Take “TACTTCACTAATTAAGCTCTAATAAGAAGCCCTGGCTGCTCGGAGTCACCTAGTGCAG”: the binding signal was 5570 fluorescence intensity (a.u.).
To “TTGATTTGTTACGTGTATATAATGGTTTGTTAAATTTGAACGGAGTCACCTAGTGCAG” belongs 14400 fluorescence intensity (a.u.).
To “AATAATACTGTAATAATTATATCTCTCAAGGCGTACGTGACGGAGTCACCTAGTGCAG” belongs 4000 fluorescence intensity (a.u.); to “CAACATCTCCTCCAATCAGCAGCAGCAGCAGCAGAGCTGACGGAGTCACCTAGTGCAG”, 3280 fluorescence intensity (a.u.).
Under “CCAAGTTAATTAGACAACCAGCTCACGTAACGGGACACTGCGGAGTCACCTAGTGCAG” stands 30900 fluorescence intensity (a.u.).
For “AGCTAATGAATGATTTTCACTTGACCAGTACATCCAACATCGGAGTCACCTAGTGCAG”, the binding signal was 23200 fluorescence intensity (a.u.).
To “GTTGTACCACTGATTGGACTGCCTGCTTACCGATAATTAACGGAGTCACCTAGTGCAG” belongs 24500 fluorescence intensity (a.u.); to “CTTAATTTCCTTTCATAAGTTCACTACCTAAATATATAAGCGGAGTCACCTAGTGCAG”, 7470 fluorescence intensity (a.u.); to “GTTATATAATGATTTGTAATTAATTTAATCTGAATACTGACGGAGTCACCTAGTGCAG”, 38200 fluorescence intensity (a.u.).
To “TATATTCAATTATTAATTTGATGAAACTAATTTAGTATTACGGAGTCACCTAGTGCAG” belongs 12800 fluorescence intensity (a.u.); to “AAGAGGGAATTATCTAAATTTATTGCATGTCCATATTCACCGGAGTCACCTAGTGCAG”, 7050 fluorescence intensity (a.u.).
Under “TATCATCACTACACATAATTATATAATATAGTAGTGCATACGGAGTCACCTAGTGCAG” stands 3530 fluorescence intensity (a.u.).
Take “ATTGATTTGATGAAACTAATTTAATATTATAAATATTATTCGGAGTCACCTAGTGCAG”: the binding signal was 26000 fluorescence intensity (a.u.).
Under “TAATTAGCTTATTACCGTCAATCTTGAATAATTTGAGAGCCGGAGTCACCTAGTGCAG” stands 5640 fluorescence intensity (a.u.); under “TTTGATTTGGATCTTTTCTATAATGTTGCCGAATTGGCCACGGAGTCACCTAGTGCAG”, 17200 fluorescence intensity (a.u.); under “GTGCTAATCAGTTGGCATAATAATCCAGAGAGTTGCACGACGGAGTCACCTAGTGCAG”, 7820 fluorescence intensity (a.u.).
Under “TTAGGCCTAATTAATCCGTCATTAGCAAATGTTTACTATACGGAGTCACCTAGTGCAG” stands 10400 fluorescence intensity (a.u.); under “TAAACCCAATTAATTCGTCATTAGCAAATGTTTACTGTAGCGGAGTCACCTAGTGCAG”, 10800 fluorescence intensity (a.u.); under “GAAATTTTCTGTCACATGATATATAGATAATCCATTAAGACGGAGTCACCTAGTGCAG”, 5100 fluorescence intensity (a.u.).
To “GCTTGATATACTATTTTCATGATGTGGTTCTTTTAAATTCCGGAGTCACCTAGTGCAG” belongs 4660 fluorescence intensity (a.u.); to “GTTGCTAAATTTTAGTTATTACTGTGCAGTTGCCAAATTTCGGAGTCACCTAGTGCAG”, 4010 fluorescence intensity (a.u.); to “CAAACGGGTAATTAACTGGGATTAATTTGCCATAAGCCGACGGAGTCACCTAGTGCAG”, 53100 fluorescence intensity (a.u.).
Regarding “ATAATATATGATTAATTAAGTTTTAATTATTACAAACTTGCGGAGTCACCTAGTGCAG”, the binding signal is 37000 fluorescence intensity (a.u.).
Under “GCCATCTAATCAATACATACAGCAAGTCATATAACATGTGCGGAGTCACCTAGTGCAG” stands 8330 fluorescence intensity (a.u.); under “TTGTTAATTTCCAGCGCTGCGAGCCTGCACGAACTCACGTCGGAGTCACCTAGTGCAG”, 4680 fluorescence intensity (a.u.); under “GTGTAATTTTGTTAGGAAATTTGGGTTTGAATCAGTGGAACGGAGTCACCTAGTGCAG”, 12500 fluorescence intensity (a.u.).
Under “CACACTTGTTAATTGGCAGAGAATTCACAAGTCCCATCAACGGAGTCACCTAGTGCAG” stands 20000 fluorescence intensity (a.u.); under “TCTTGATGAGTTATACAACTTTGTTGTTGATAACTTTCCCCGGAGTCACCTAGTGCAG”, 12600 fluorescence intensity (a.u.).
On to “ATAAATACTTCTTTAATTATTATTAACATAACATAGAAAACGGAGTCACCTAGTGCAG”, for which the binding signal is 3280 fluorescence intensity (a.u.).
To “TTTAACACAAATTCTAATGATAAACACAGTTGAGCCTCCCCGGAGTCACCTAGTGCAG” belongs 4640 fluorescence intensity (a.u.); to “GTGATTTTGTTAAACTTAGGCTGCTTGTTTCATCAATTGCCGGAGTCACCTAGTGCAG”, 3740 fluorescence intensity (a.u.); to “GTACAATTATTAATAGAGATACATATCTCAACGACTACACCGGAGTCACCTAGTGCAG”, 5340 fluorescence intensity (a.u.).
For the sequence “TATTCTGATTGGAACTTATGAGTCTTGAATTCTTGATTCTCGGAGTCACCTAGTGCAG”, the binding signal is 39000 fluorescence intensity (a.u.).
With “ATAACAAGAGATCAATCACAGAAGACACGAGATTTAACGTCGGAGTCACCTAGTGCAG”, the binding signal is 13000 fluorescence intensity (a.u.).
Under “GCTGATAAGCATAAGCATAATTGAAAAGATAAGGCCCTTACGGAGTCACCTAGTGCAG” stands 3610 fluorescence intensity (a.u.).
To “CGCCCCTGATTACTCCAGTGATCTGGCACACATTCTATTTCGGAGTCACCTAGTGCAG” belongs 11200 fluorescence intensity (a.u.); to “CCTCGTAATTTGATAAATGCCAGCAAATTACTCTCCGTAACGGAGTCACCTAGTGCAG”, 38900 fluorescence intensity (a.u.).
Under “TTATGACTGAATAATCTTGTTACTGTACAGGCTTGTGGATCGGAGTCACCTAGTGCAG” stands 26600 fluorescence intensity (a.u.).

The values are drawn from PMC7819943, “Rice protein-binding microarrays: a tool to detect cis-acting elements near promoter regions in rice”.
